Data published in PubChem BioAssay AID1508624 (National Center for Advancing Translational Sciences (NCATS), 2021).
About 120 (0.25%) of roughly 48,000 compounds were called active. Inconclusive results (about 4%) are left out. Calls follow the shape of the dose curve; as a rule, active = well fitted activation curve with a large enough effect; inconclusive = small, poorly fitted or top-dose-only effect, or another doubt; inactive = no such curve, though single readings can be large or run the other way. The list shows a part of the results.

Assay: Primary qHTS for Identification of Small Molecule Activators of Huntingtin-Antisense Promoter Activity; also: nearly all actives have a fitted effect of over 55% in size
Conditions: HEK293 HTT-AS promoter firefly luciferase reporter (activity 0% = vehicle and -100% = no light), 24 h; series mostly up to 57.5 µM; activity change, positive = activation: at the top concentration
In short: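 Firefly luciferase readout (Dual-Glo, 10 min RT) after 24 h, 37 °C compound exposure (final up to 57.5 uM) of HEK293 reporter cells cultured 24 h beforehand; PTC124 at 50 uM final as control inhibitor; activity scaled vehicle 0%, zero RLU -100%.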

Activity change, positive = activation, inactive:
COc1ccc(C(=O)NCC(c2ccco2)S(=O)(=O)c2cccs2)cc1OC (stereo unspecified) -17.6%
Cc1ccnc(NS(=O)(=O)c2ccc(NC(=O)c3nc(SC(C)C)ncc3Cl)cc2)n1 -0.363%
CCOc1ccc(CCNC(=O)c2cc3sc(CC)cc3n2C)cc1OCC -18%
Cc1ccc(S(=O)(=O)N2CCC(n3c(C)nc4cccnc43)CC2)c(C)c1 -36.1%
Cc1ccc(S(=O)(=O)c2cn(Cc3ccc(F)cc3)c3cc(N4CCCC4)c(F)cc3c2=O)cc1 -5.81%
Cc1ccc(CNC(=O)c2ccc(-c3nc(CS(=O)(=O)c4ccc(C)cc4)c(C)o3)cc2)cc1 -16.2%
COc1cc2c(cc1O)CCC1C2CC[C@@]2(C)C1CC[C@@H]2O (stereo partly specified) -33.6%
CCc1ccccc1NC(=O)C(=O)NCCc1sc(-c2cccc(F)c2)nc1C -17.3%
Cc1[nH]c2ccccc2c1SCCNC(=O)c1ccccc1F -19.1%
COc1ccc(CCNC(=O)CSCc2nc(-c3ccc(OC)c(OC)c3)oc2C)cc1OC -20.7%
COc1cc(OC)c(NC(=O)c2ccc3c(Cl)c4c(nc3c2)CCCC4)cc1Cl -5.86%
CN1C(C)(C)CCCC1(C)C -8.15%
COCCNc1ccc(-c2nc(-c3cccc(C)c3)no2)cc1[N+](=O)[O-] 17.8%
CN1C(=O)c2ccccc2Sc2ccc(NC(=O)COc3ccc(Cl)cc3)cc21 -40.3%
CC1CCCN(C(=O)Cn2c(=O)n(CC3CCC(C(=O)NC(C)C)CC3)c(=O)c3sccc32)C1 (stereo unspecified) -5.85%
Cn1c(-n2cccc2)c(-c2c(-c3ccc(F)cc3)[nH]c3c2c(=O)[nH]c(=O)n3C)c(=O)[nH]c1=O -11%
COc1ccc(-n2ncc3c2ncn2nc(-c4ccc(Cl)cc4Cl)nc32)cc1 -6.84%
COc1cccc(OC)c1Cn1nnc2c(=O)[nH]c(C3CCN(C(=O)c4ccccc4)CC3)nc21 -15.2%
Cn1cc(-c2ccc3ncc(Cc4ccc5ncccc5c4)n3n2)cn1 -9.33%
COc1cccc(C2Nc3ccccc3-c3nnc(SCc4ccccc4)nc3O2)c1OC (stereo unspecified) -5.64%
Cc1ccc(S(=O)(=O)c2nc(-c3ccccc3)oc2SCC(=O)NC2CCCCC2)cc1 11.8%
O=C(Nc1ccc(F)c(Cl)c1)C1CCCN1S(=O)(=O)c1ccc(F)cc1 (stereo unspecified) -8.81%
COc1ccc(NC(=O)C(CC(C)C)NS(=O)(=O)c2ccc3c(c2)oc(=O)n3C)cc1Cl (stereo unspecified) -5.69%
CCOc1ccc(NC(=O)Cn2c(=O)n(Cc3nc(-c4ccccc4)no3)c(=O)c3ccccc32)cc1 -11%
CCOC(=O)C1=C(CS(=O)(=O)c2ccc(C)c(C)c2)NC(=O)NC1c1ccccc1OCC (stereo unspecified) -9.08%
COc1ccc(N(CC(=O)N2CCN(c3cccc(OC)c3)CC2)S(=O)(=O)c2c(C)noc2C)cc1 -28.9%
